Residue numbers refer to the chain shown, from its start. The list shows a part of the results.
T1: RBFOX1 RRM (Homo sapiens, UniProt Q9NWB1 109-208)
T1 sequence: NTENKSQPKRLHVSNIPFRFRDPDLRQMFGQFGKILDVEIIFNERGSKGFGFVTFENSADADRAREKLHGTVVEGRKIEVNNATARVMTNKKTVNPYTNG

B1: GAUACCC (DNA:RNA)
RNA: GGGAGACCGGAAUUCAGAUUGUCCGAUACCCUUAAAUCCCGUCGUAGCCACCA
DNA 1: CAATCTGAATTCCGGTCTCCC
DNA 2: TGGTGGCTACGACGGGATT
B2: UCGGCCC (DNA:RNA)
RNA: B1 RNA with G25U, A26C, U27G, A28G
DNA 1: CAATCTGAATTCCGGTCTCCC
DNA 2: TGGTGGCTACGACGGGATT
B3: CCUUGAU (DNA:RNA)
RNA: B1 RNA with G25C, A26C, A28U, C29G, C30A, C31U
DNA 1: CAATCTGAATTCCGGTCTCCC
DNA 2: TGGTGGCTACGACGGGATT
B4: AAGACAC (DNA:RNA)
RNA: B1 RNA with G25A, U27G, C30A
DNA 1: CAATCTGAATTCCGGTCTCCC
DNA 2: TGGTGGCTACGACGGGATT
B5: CUUAGUG (DNA:RNA)
RNA: B1 RNA with G25C, A26U, C29G, C30U, C31G
DNA 1: CAATCTGAATTCCGGTCTCCC
DNA 2: TGGTGGCTACGACGGGATT
B6: ACCAUCA (DNA:RNA)
RNA: B1 RNA with G25A, A26C, U27C, C29U, C31A
DNA 1: CAATCTGAATTCCGGTCTCCC
DNA 2: TGGTGGCTACGACGGGATT
B7: GUCAUCC (DNA:RNA)
RNA: B1 RNA with A26U, U27C, C29U
DNA 1: CAATCTGAATTCCGGTCTCCC
DNA 2: TGGTGGCTACGACGGGATT
B8: AACGGUU (DNA:RNA)
RNA: B1 RNA with G25A, U27C, A28G, C29G, C30U, C31U
DNA 1: CAATCTGAATTCCGGTCTCCC
DNA 2: TGGTGGCTACGACGGGATT
B9: UGGCGCG (DNA:RNA)
RNA: B1 RNA with G25U, A26G, U27G, A28C, C29G, C31G
DNA 1: CAATCTGAATTCCGGTCTCCC
DNA 2: TGGTGGCTACGACGGGATT
B10: CGCACAU (DNA:RNA)
RNA: B1 RNA with G25C, A26G, U27C, C30A, C31U
DNA 1: CAATCTGAATTCCGGTCTCCC
DNA 2: TGGTGGCTACGACGGGATT
B11: GCCCGAC (DNA:RNA)
RNA: B1 RNA with A26C, U27C, A28C, C29G, C30A
DNA 1: CAATCTGAATTCCGGTCTCCC
DNA 2: TGGTGGCTACGACGGGATT
B12: AGCCCUG (DNA:RNA)
RNA: B1 RNA with G25A, A26G, U27C, A28C, C30U, C31G
DNA 1: CAATCTGAATTCCGGTCTCCC
DNA 2: TGGTGGCTACGACGGGATT
B13: CAUAUAA (DNA:RNA)
RNA: B1 RNA with G25C, C29U, C30A, C31A
DNA 1: CAATCTGAATTCCGGTCTCCC
DNA 2: TGGTGGCTACGACGGGATT
B14: GCUGAAC (DNA:RNA)
RNA: B1 RNA with A26C, A28G, C29A, C30A
DNA 1: CAATCTGAATTCCGGTCTCCC
DNA 2: TGGTGGCTACGACGGGATT
B15: GCCUCAG (DNA:RNA)
RNA: B1 RNA with A26C, U27C, A28U, C30A, C31G
DNA 1: CAATCTGAATTCCGGTCTCCC
DNA 2: TGGTGGCTACGACGGGATT
B16: UCCUCUG (DNA:RNA)
RNA: B1 RNA with G25U, A26C, U27C, A28U, C30U, C31G
DNA 1: CAATCTGAATTCCGGTCTCCC
DNA 2: TGGTGGCTACGACGGGATT
B17: AACAGCA (DNA:RNA)
RNA: B1 RNA with G25A, U27C, C29G, C31A
DNA 1: CAATCTGAATTCCGGTCTCCC
DNA 2: TGGTGGCTACGACGGGATT
B18: CCGUGAU (DNA:RNA)
RNA: GGGAGACCGGAAUUCAGAUUGUCCCCGUGAUUUAAAUCCCGUCGUAGCCACCA
DNA 1: CAATCTGAATTCCGGTCTCCC
DNA 2: TGGTGGCTACGACGGGATT
B19: CUCUAAU (DNA:RNA)
RNA: B18 RNA with C26U, G27C, G29A
DNA 1: CAATCTGAATTCCGGTCTCCC
DNA 2: TGGTGGCTACGACGGGATT
B20: AGGGAGU (DNA:RNA)
RNA: B18 RNA with C25A, C26G, U28G, G29A, A30G
DNA 1: CAATCTGAATTCCGGTCTCCC
DNA 2: TGGTGGCTACGACGGGATT

Target: T1, RBFOX1 RRM
Assay: EMSA; HiTS-Eq, 1 nM pool, 10 min; buffer printed only for the single-RNA assays: 10 mM Tris pH 7.5, 150 mM NaCl, 3.4 mM EDTA, 0.001% NP-40, 30 C
Conditions: tags: His6 N-terminal (pET28a); label: 5' 32P
Procedure, shortened: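 Purified RbFox RRM, wild type or mutant, was incubated for 10 min in 50 µL with 1 nM of a 5′-radiolabelled RNA pool carrying 7 randomized nucleotides, whose flanks were annealed to DNA oligonucleotides, over a series of increasing protein concentrations. Unbound RNA was resolved on 8% native PAGE, cut out, reverse-transcribed, barcoded by PCR and sequenced on an Illumina HiSeq 2500. Relative association constants were derived from changes in read counts for each RNA species versus the control reaction and normalised to the cognate motif.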

Binder	binding signal
B1	0.0101 KA relative to UGCAUGU
B2	0.0157 KA relative to UGCAUGU
B3	0.00825 KA relative to UGCAUGU
B4	0.000216 KA relative to UGCAUGU
B5	0.0161 KA relative to UGCAUGU
B6	0.00181 KA relative to UGCAUGU
B7	0.00874 KA relative to UGCAUGU
B8	0.00768 KA relative to UGCAUGU
B9	0.0253 KA relative to UGCAUGU
B10	0.00748 KA relative to UGCAUGU
B11	0.0146 KA relative to UGCAUGU
B12	0.0112 KA relative to UGCAUGU
B13	0.00105 KA relative to UGCAUGU
B14	0.0215 KA relative to UGCAUGU
B15	0.0106 KA relative to UGCAUGU
B16	0.0167 KA relative to UGCAUGU
B17	0.00394 KA relative to UGCAUGU
B18	0.0115 KA relative to UGCAUGU
B19	0.00215 KA relative to UGCAUGU
B20	0.0181 KA relative to UGCAUGU
